Experimental data taken from the supplement of paper PMC8728848.
Some of the results follow.

Tests used:
Assay in all cases: glycan array binding signal (z-score within array); higher = stronger binding
Settings in all cases: glycan notation: IUPAC condensed, linker removed
[1] = target: Fuc(a1-3)[Gal(b1-4)]GlcNAc
Summary of the method: (§1)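 From the Consortium for Functional Glycomics database, 3228 arrays were curated, keeping only those whose protein sequence was available. Binding is given as a within-array Z-score averaged across arrays sharing a protein sequence and across linkers. Negative Z-scores can be read as non-binding.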

[2] = target: Fuc(a1-3)[Gal(b1-4)]GlcNAc(b1-4)Gal(b1-4)[Fuc(a1-3)]GlcNAc
Summary of the method: as §1

[3] = target: Fuc(a1-3)[Gal(b1-4)]GlcNAc(b1-4)Gal(b1-4)[Fuc(a1-3)]GlcNAc(b1-4)Gal(b1-4)[Fuc(a1-3)]GlcNAc
Summary of the method: as §1

[4] = target: Fuc(a1-3)[Gal3S(b1-4)]GlcNAc
Summary of the method: as §1

[5] = target: Fuc(a1-3)[GalNAc(b1-4)]GlcNAc
Summary of the method: as §1

[6] = target: Fuc(a1-4)GlcNAc
Summary of the method: as §1

[7] = target: Fuc(b1-3)GlcNAc
Summary of the method: as §1

[8] = target: Gal(a1-2)Gal
Summary of the method: as §1

[9] = target: Gal(a1-3)Gal
Summary of the method: as §1

[10] = target: Gal(a1-3)Gal(b1-3)GlcNAc
Summary of the method: as §1

[11] = target: Gal(a1-3)Gal(b1-4)Glc
Summary of the method: as §1

[12] = target: Gal(a1-3)Gal(b1-4)GlcNAc
Summary of the method: as §1

[13] = target: Gal(a1-3)Gal(b1-4)[Fuc(a1-3)]GlcNAc
Summary of the method: as §1

[14] = target: Gal(a1-3)GalNAc
Summary of the method: as §1

[15] = target: Gal(a1-3)[Gal(a1-4)]Gal(b1-4)GlcNAc
Summary of the method: as §1

[16] = target: Gal(a1-4)Gal(b1-4)Glc
Summary of the method: as §1

[17] = target: Gal(a1-4)Gal(b1-4)GlcNAc
Summary of the method: as §1

[18] = target: Gal(a1-4)GlcNAc
Summary of the method: as §1

[19] = target: Gal(a1-6)Glc
Summary of the method: as §1

[20] = target: Gal(b1-2)Gal
Summary of the method: as §1

[21] = target: Gal(b1-3)Gal
Summary of the method: as §1

[22] = target: Gal(b1-3)GalNAc
Summary of the method: as §1

[23] = target: Gal(b1-3)GalNAc(b1-3)Gal(a1-4)Gal(b1-4)Glc
Summary of the method: as §1

[24] = target: Gal(b1-3)GalNAc(b1-4)Gal(b1-4)Glc
Summary of the method: as §1

[25] = target: Gal(b1-3)GalNAc(b1-4)[Neu5Ac(a2-3)]Gal(b1-4)Glc
Summary of the method: as §1

[26] = target: Gal(b1-3)GlcNAc
Summary of the method: as §1

[27] = target: Gal(b1-3)GlcNAc(b1-3)Gal(b1-4)Glc
Summary of the method: as §1

[28] = target: Gal(b1-3)GlcNAc(b1-3)Gal(b1-4)GlcNAc
Summary of the method: as §1

[29] = target: Gal(b1-3)[Fuc(a1-4)]GlcNAc
Summary of the method: as §1

[30] = target: Gal(b1-3)[Fuc(a1-4)]GlcNAc(b1-3)Gal(b1-4)GlcNAc
Summary of the method: as §1

[31] = target: Gal(b1-3)[Fuc(a1-4)]GlcNAc(b1-3)Gal(b1-4)[Fuc(a1-3)]GlcNAc
Summary of the method: as §1

[32] = target: Gal(b1-3)[GlcNAc(b1-6)]GalNAc
Summary of the method: as §1

[33] = target: Gal(b1-3)[Neu5Ac(a2-6)]GalNAc
Summary of the method: as §1

[34] = target: Gal(b1-3)[Neu5Ac(a2-6)]GlcNAc(b1-6)Gal(b1-4)Glc
Summary of the method: as §1

[35] = target: Gal(b1-3)[Neu5Ac(b2-6)]GalNAc
Summary of the method: as §1

[36] = target: Gal(b1-4)GalNAc(a1-3)[Fuc(a1-2)]Gal(b1-4)GlcNAc
Summary of the method: as §1

[37] = target: Gal(b1-4)GalNAc(b1-3)[Fuc(a1-2)]Gal(b1-4)GlcNAc
Summary of the method: as §1

[38] = target: Gal(b1-4)Glc
Summary of the method: as §1

[39] = target: Gal(b1-4)Glc6S
Summary of the method: as §1

[40] = target: Gal(b1-4)GlcNAc
Summary of the method: as §1

[41] = target: Gal(b1-4)GlcNAc(b1-2)Man(a1-3)[Gal(b1-4)GlcNAc(b1-2)Man(a1-6)]Man(b1-4)GlcNAc(b1-4)GlcNAc
Summary of the method: as §1

B1: CLEC-6 (Homo sapiens), Q8WXI8 (protein)
chain: MGLEKPQSKLEGGMHPQLIPSVIAVVFILLLSVCFIASCLVTHHNFSRCKRGTGVHKLEHHAKLKCIKEKSELKSAEGSTWNCCPIDWRAFQSNCYFPLTDNKTWAESERNCSGMGAHLMTISTEAEQNFIIQFLDRRLSYFLGLRDENAKGQWRWVDQTPFNPRRVFWHKNEPDNSQGENCVVLVYNQDKWAWNDVPCNFEASRICKIPGTTLN
[1]
  glycan array binding signal (z-score): -0.217
[2]
  glycan array binding signal (z-score): -0.06
[3]
  glycan array binding signal (z-score): -0.329
[4]
  glycan array binding signal (z-score): -0.221
[5]
  glycan array binding signal (z-score): -0.053
[6]
  glycan array binding signal (z-score): -0.155
[7]
  glycan array binding signal (z-score): -0.296
[8]
  glycan array binding signal (z-score): -0.304
[9]
  glycan array binding signal (z-score): -0.093
[10]
  glycan array binding signal (z-score): -0.286
[11]
  glycan array binding signal (z-score): -0.283
[12]
  glycan array binding signal (z-score): -0.191
[13]
  glycan array binding signal (z-score): -0.267
[14]
  glycan array binding signal (z-score): -0.047
[15]
  glycan array binding signal (z-score): -0.268
[16]
  glycan array binding signal (z-score): -0.259
[17]
  glycan array binding signal (z-score): 0.172
[18]
  glycan array binding signal (z-score): -0.055
[19]
  glycan array binding signal (z-score): -0.006
[20]
  glycan array binding signal (z-score): -0.038
[21]
  glycan array binding signal (z-score): -0.161
[22]
  glycan array binding signal (z-score): -0.284
[23]
  glycan array binding signal (z-score): -0.16
[24]
  glycan array binding signal (z-score): -0.328
[25]
  glycan array binding signal (z-score): -0.32
[26]
  glycan array binding signal (z-score): -0.026
[27]
  glycan array binding signal (z-score): -0.289
[28]
  glycan array binding signal (z-score): -0.45
[29]
  glycan array binding signal (z-score): -0.206
[30]
  glycan array binding signal (z-score): -0.269
[31]
  glycan array binding signal (z-score): -0.169
[32]
  glycan array binding signal (z-score): -0.198
[33]
  glycan array binding signal (z-score): -0.072
[34]
  glycan array binding signal (z-score): -0.241
[35]
  glycan array binding signal (z-score): -0.108
[36]
  glycan array binding signal (z-score): -0.293
[37]
  glycan array binding signal (z-score): -0.032
[38]
  glycan array binding signal (z-score): -0.238
[39]
  glycan array binding signal (z-score): -0.263
[40]
  glycan array binding signal (z-score): -0.473
[41]
  glycan array binding signal (z-score): -0.225
